{"source": "patent US20110229560A1", "about": "(published 2011)", "binders": {"B1": {"name": "TRIF (expressed in 293T cells) (other, UniProt Q8IUC6 1-712, looked up, not shown: small tags and cut ends)", "chain": "MACTGPSLPSAFDILGAAGQDKLLYLKHKLKTPRPGCQGQDLLHAMVLLKLGQETEARISLEALKADAVARLVARQWAGVDSTEDPEEPPDVSWAVARLYHLLAEEKLCPASLRDVAYQEAVRTLSSRDDHRLGELQDEARNRCGWDIAGDPGSIRTLQSNLGCLPPSSALPSGTRSLPRPIDGVSDWSQGCSLRSTGSPASLASNLEISQSPTMPFLSLHRSPHGPSKLCDDPQASLVPEPVPGGCQEPEEMSWPPSGEIASPPELPSSPPPGLPEVAPDATSTGLPDTPAAPETSTNYPVECTEGSAGPQSLPLPILEPVKNPCSVKDQTPLQLSVEDTTSPNTKPCPPTPTTPETSPPPPPPPPSSTPCSAHLTPSSLFPSSLESSSEQKFYNFVILHARADEHIALRVREKLEALGVPDGATFCEDFQVPGRGELSCLQDAIDHSAFIILLLTSNFDCRLSLHQVNQAMMSNLTRQGSPDCVIPFLPLESSPAQLSSDTASLLSGLVRLDEHSQIFARKVANTFKPHRLQARKAMWRKEQDTRALREQSQHLDGERMQAAALNAAYSAYLQSYLSYQAQMEQLQVAFGSHMSFGTGAPYGARMPFGGQVPLGAPPPFPTWPGCPQPPPLHAWQAGTPPPPSPQPAAFPQSLPFPQSPAFPTASPAPPQSPGLQPLIIHHAQMVQLGLNNHMWNQRGSQAPEDKTQEAE"}}, "biological_target": "T1, HA-tagged NLRC5 (human NLRC5, full length) (human, UniProt Q86WI3 1-1866)", "T1 construct": "Expressed from pcDNA3.1 with an HA tag in transfected 293T cells; used in lysates for co-immunoprecipitation; General statements about NLRC5 in overexpression experiments are put on this molecule; also called HA-NLRC5", "experiment": "co-IP (anti-Flag or anti-HA beads) and Western blot, FIG. 15"}
{"binder": "B1", "values": [{"measurement": "binding result", "value": "no binding"}]}
